Assay results reported in US11155596B2, “Polypeptide” (AFFIBODY AB, priority 2016, dated 2021).

Target: T1, hPD-L1 binding to hPD-1 (Homo sapiens, UniProt Q9NZQ7)
T1 construct: 1086-PD-050 (hPD-1)
Assay: AlphaLISA blocking assay (Example 7)
Conditions: His6-tagged Z variants 250 nM to 4 pM; 8 nM biotinylated hPD-L1; read-out: IC50 AlphaLISA (M), blocking the PD-1/PD-L1 interaction
Experimental: AlphaLISA blocking assay: The potential of Z variants to inhibit binding of PD-L1 to PD-1 was analyzed by AlphaLISA and recordings in an EnSpire multiplate reader 2300 (Perkin Elmer). hPD-1 (human PD-1 Fc-chimera; R&D Systems, cat. no. 1086-PD-050) was immobilized on AlphaLISA Acceptor beads (Perkin Elmer, cat. no. 6772002) according to the manufacturer's recommendations. […] Finally, streptavidin coated Donor beads (Perkin Elmer, cat. no. 6772002) were added to a final concentration of 40 μg/ml and incubated for 30 min. All incubations were performed at RT in the dark. The plate was analyzed in the EnSpire instrument and the IC50 values were calculated using GraphPad Prism 5.
Exception 2: hPD-1-coated Acceptor beads were added to a final concentration of 10 μg/ml and incubated for 50 min.

T1 sequence (Q9NZQ7 19-239 limits assumed): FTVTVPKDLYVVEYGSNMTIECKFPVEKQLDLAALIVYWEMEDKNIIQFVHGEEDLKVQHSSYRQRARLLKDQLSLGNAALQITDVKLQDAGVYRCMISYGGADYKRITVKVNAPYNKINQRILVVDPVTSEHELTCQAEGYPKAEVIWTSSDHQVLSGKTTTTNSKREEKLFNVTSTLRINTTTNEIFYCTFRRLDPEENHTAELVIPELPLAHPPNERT

- IC50: 1.1e-09 M
Substance: Z13091: primary PD-L1 binding Z variant (VDAKYAKERNNAAFEILRLPNLTNGQHWAFIWKLADDPSQSSELLSEAKKLNDSQAPK; Engineered PD-L1 binding polypeptide)
